# Test results as given in PubChem BioAssay AID463173 (ICCB-Longwood Screening Facility, Harvard Medical School, 2010).
# The whole screen tested about 52,000 compounds, of which about 1,700 (3.3%) were called active. Rule as the data show it: active = survival mostly below about 52% (no sharp cut-off); inactive = mostly above about 56%. This is one part of the list.
# Tested on: Wild type
# Assay: S. aureus survival, RN4220 and DeltatarO strains – OD600, teichoic acid synthesis inhibitors, primary screen (AID 463173)
# Conditions: S. aureus RN4220 wild type/DeltatarO growth, OD600, 18 h, stronger effect = lower value, screened at 18.75 µg/mL (by protocol)
row,Compound,survival
1,CC(C)(C)c1ccc(C(=O)NCC(c2cccs2)S(=O)(=O)c2ccccc2)cc1 (stereo not given),inactive: 119%
2,CC(=O)c1ccc(N2CCN(c3ccc(NC(=O)c4ccc(F)cc4)cc3C(=O)O)CC2)cc1,active: 14%
3,CCc1ccc(CNC(=O)c2ccc(NC(=O)N3CC(C)Sc4ccccc43)cc2)cc1 (stereo not given),inactive: 91%
4,Cc1cc(C)c2c(=O)cc(C(=O)Nc3ccccc3C(F)(F)F)oc2c1,inactive: 91%
5,CCOC(=O)c1c(-c2ccc(Br)cc2)csc1NC(=O)c1ccc(F)cc1,inactive: 72%
6,CN(Cc1ccccc1)S(=O)(=O)c1ccc(NC(=O)c2ccco2)cc1,inactive: 101%
7,COC(=O)c1ccccc1NC(=O)CSc1nc2ccccc2nc1Cc1ccccc1OC,inactive: 113%
8,CC(C)OCCCNC(=O)c1ccc2c(c1)NC(=O)c1ccccc1S2,inactive: 87%
9,O=C(Nc1cc(-c2nc3ccccc3o2)ccc1Cl)c1ccc(N2CCCCC2)c([N+](=O)[O-])c1,inactive: 78%
10,CN(C(=O)c1cc2nc(-c3ccco3)cc(C(F)(F)F)n2n1)c1ccc(OC(F)(F)Cl)cc1,inactive: 132%
11,CCn1c(=O)sc2cc(NS(=O)(=O)c3ccc(F)c(C)c3)ccc21,inactive: 67%
12,Cc1ccc(CSc2cn(CC(=O)N3CCCC3)c3ccccc23)cc1,inactive: 84%
13,O=C(CCS(=O)(=O)c1cc(Br)cc2c1N(C(=O)C1CC1)CC2)NCc1ccc(Cl)cc1,inactive: 87%
14,CC(=O)Nc1cc(OC(C)=O)c2nonc2c1OC(C)=O,inactive: 74%
15,Cc1ccc(NC(=O)Cn2cc(S(=O)(=O)c3ccc(C)cc3)c(=O)c3cc4c(cc32)OCO4)cc1,inactive: 79%
16,Cc1ccc(-c2nc(SCCOc3ccccc3C)n3[nH]c(=O)cc3n2)cc1,inactive: 121%
17,COc1ccc(C2c3c(n(C)c4ccccc34)C(=O)N2CC(=O)Nc2ccc(C)c(Cl)c2)cc1 (stereo not given),inactive: 117%
18,O=C1Nc2ccccc2C1=Nc1ccc(Br)cc1,inactive: 103%
19,CCc1ccccc1N(CC)C(=O)c1c(C)oc2ncnc(N3CCOCC3)c12,inactive: 70%
20,CCOC(=O)C1CCN(c2nc3c(S(=O)(=O)c4ccccc4)nnn3c3ccsc23)CC1,inactive: 80%
21,CC1=C(c2ccc(C)c(C)c2)S(=O)(=O)N=C1N1CCC(C(=O)N2CCC(C(N)=O)CC2)CC1,active: -4%
22,O=c1c2oc3ccccc3c2n(Cc2ccc(Cl)cc2)c(=O)n1Cc1ccco1,inactive: 84%
23,O=C1COc2cc(S(=O)(=O)NCc3ccco3)c(Cl)cc2N1,inactive: 73%

row,Compound,survival
1,COc1ccc(NC(=O)Nc2nnc(C)s2)cc1,inactive: 63%
2,Cc1ccccc1C(=O)Nc1ccc(OCc2cc(=O)n3cccc(C)c3n2)cc1,inactive: 72%
3,CCN(C(=O)C1CCC(CNS(=O)(=O)c2cccc3nsnc23)CC1)c1ccc(C)c(C)c1 (stereo not given),inactive: 39%
4,Cc1cccc(CN2CCC(CNC(=O)c3c(C)oc4ncnc(N5CCCCC5)c34)CC2)c1,inactive: 98%
5,O=C(c1cccs1)N1CCCc2ccccc21,inactive: 124%
6,Nc1nnc(SCc2ccccc2)s1,inactive: 87%
7,Cc1cccc(C(=O)Nc2sc3c(c2C(=O)N2CCCCC2)CCC(C)C3)c1 (stereo not given),active: -1%
8,CC(=O)N1CCOc2cc(S(=O)(=O)NC(C)c3ccccc3)c(Cl)cc21 (stereo not given),inactive: 90%
9,Cc1oc2ccc(O)c(CN(C)Cc3ccccc3)c2c1C(=O)Nc1ccccc1,inactive: 105%
10,O=C(CCc1cn(Cc2ccc(F)cc2)c2ccccc12)NCCc1ccc(Cl)cc1,inactive: 99%
11,CCN(CC)CCNC(=O)c1c(C)oc2ncn(C)c(=O)c12,inactive: 81%
12,Cn1cnc(S(=O)(=O)N2CCC(C(=O)NCc3ccccc3Cl)CC2)c1,inactive: 128%
13,CCN(c1ccccc1)c1nnc(NC(=O)Nc2ccc(Br)cc2)s1,inactive: 85%
14,Cc1ccc(NC(=O)Nc2nnc(N3CCCC3)s2)cc1,inactive: 85%
15,CCOC(=O)c1c(NC(=O)/C=C/c2ccc(C(C)C)cc2)sc2c1CCC2,inactive: 60%
16,Cc1ccc(C(=O)CC2(O)C(=O)N(Cc3ccccc3F)c3ccccc32)cc1 (stereo not given),inactive: 71%
17,COc1cccc(NC(=O)CSc2nc3ccc(NC(=O)c4cccs4)cc3s2)c1,inactive: 70%
18,CNS(=O)(=O)c1cn(CC(=O)N2CCN(c3ccccc3F)CC2)cc1S(=O)(=O)NC,inactive: 73%
19,CCc1ccc(OC(C)c2nc(-c3ccc(-n4cccc4)cc3)no2)cc1 (stereo not given),active: -4%
20,CC(C)C(=O)Nc1ccc(N2CCN(C(=O)c3ccccc3)CC2)cc1,inactive: 96%
21,CCOC(=O)C1NC(=O)CC1c1ccccc1 (stereo not given),inactive: 99%
22,CCOc1ccc(CCNc2ncnc3onc(-c4ccc(Cl)cc4)c23)cc1OCC,inactive: 85%
23,COCc1nc2cccnc2n1C1CCN(S(=O)(=O)N(C)C)CC1,inactive: 66%

row,Compound,survival
1,O=S(=O)(NCc1csc(-c2ccccc2)n1)c1cccc(F)c1,inactive: 73%
2,COc1ccc(NC(=O)C(c2ccc(C)cc2)N(C)C(=O)/C=C\c2ccc3c(c2)OCO3)cc1 (stereo not given),inactive: 78%
3,CC(C)CNC(=O)c1cc2sccc2n1Cc1ccccc1,inactive: 133%
4,COc1cccc(C2=C(C(C)=O)Sc3nncn3N2C(C)=O)c1,inactive: 66%
5,CCOC(=O)c1ccc(NC(=O)CCc2c(C)nc3c(c(C)nn3-c3ccccc3)c2C)cc1,inactive: 87%
6,Cc1ccc(CN(Cc2ccco2)C(=O)COc2ccccc2C)cc1,inactive: 83%
7,O=C(Cn1c(SCc2cccc(F)c2)nc2cccnc21)Nc1ccc(F)c(Cl)c1,inactive: 68%
8,O=C(NCCO)c1ccc2c(c1)OCO2,inactive: 100%
9,CC(=O)c1ccc(NC(=O)CCc2c(C)nc3c(c(C)nn3-c3ccc(C)cc3)c2C)cc1,inactive: 82%
10,COc1ccccc1NC(c1ccc(Cl)cc1)c1nnc(-c2cccc(F)c2)o1 (stereo not given),inactive: 62%
11,CCOc1ccc(-c2nonc2NC(=O)c2oc3ccc(F)cc3c2C)cc1,inactive: 125%
12,Cc1nn2c(=O)cc(CN(C)c3ccccc3)nc2s1,inactive: 131%
13,CCOC(=O)c1ccccc1NC(=O)CSc1ncc(CO)n1Cc1ccc(C)cc1,inactive: 90%
14,CC(C)(C)c1ccc(Cn2c(Cc3ccccc3)nc3ccccc32)cc1,active: -1%
15,O=C(COc1ccccc1Cl)Nc1cc(-c2ccccc2F)nn1-c1ccccc1,inactive: 90%
16,Cc1cc(C)cc(NC(=O)CN(c2cc(C(F)(F)F)ccc2Cl)S(=O)(=O)c2ccccc2)c1,inactive: 79%
17,O=C(CCS(=O)(=O)c1nc(-c2cccs2)cc(C(F)(F)F)n1)Nc1ccc(OC(F)(F)F)cc1,inactive: 73%
18,COc1ccc(C2c3c(oc4ccccc4c3=O)C(=O)N2Cc2ccc3c(c2)OCO3)cc1 (stereo not given),inactive: 80%
19,CN(C1CCCCC1)S(=O)(=O)c1ccc(S(=O)(=O)N(Cc2ccccn2)Cc2ccco2)cc1,inactive: 106%
20,COC(=O)c1ccccc1NC(=O)C1=CC(c2ccc(C)cc2)=NS(=O)(=O)N1C,inactive: 77%
21,O=C1CCCN1CN1CCN(CN2CCCC2=O)CC1,inactive: 111%
22,COc1ccc(OC)c(NC(=O)c2cc3c(n(-c4ccc(Cl)cc4)c2=O)CC(C)(C)CC3=O)c1,inactive: 70%
23,C=CCn1c(N)cc(=O)nc1SCC(=O)NC(C)c1ccccc1 (stereo not given),inactive: 108%

row,Compound,survival
1,O=C(CN1CCN(Cc2ccc(F)cc2)C1=O)NCc1ccccc1Cl,inactive: 75%
2,COc1cccc(-c2nn(C)c3sc(C(=O)NCc4cc(OC)ccc4OC)cc23)c1,inactive: 85%
3,Cc1cc(C)c(S(=O)(=O)Nc2ccc(-c3ccc(N4CCC(C)CC4)nn3)cc2)cc1C,inactive: 67%
4,Cc1cccc(C)c1Nc1c(-c2ccccc2F)nc2cccc(C)n12,active: 7%
5,CC(C)CCNC(=O)C1CCN(Cc2ccccc2O)CC1,inactive: 102%
6,C=CCNC(=O)c1cc2c(=O)n3cccc(C)c3nc2n(CCN2CCOCC2)c1=N,inactive: 106%
7,COc1ccc(OCC(=O)Nc2nnc(S(=O)(=O)N3CCc4ccccc43)s2)cc1,inactive: 73%
8,CCCCN(CC)CCNC(=O)c1c(C)oc2ncnc(N3CCOCC3)c12,inactive: 76%
9,CCOc1ccc(C(=O)/C=C/c2cn(CC(O)CN3CCCCCC3)c3ccccc23)cc1 (stereo not given),active: 26%
10,Cc1ccccc1C(=O)Nc1cc2c(cc1N1CCOCC1)n(C)c(=O)n2C,inactive: 79%
11,CCOC(=O)c1ccccc1NC(=O)C1CCN(c2ncnc3c2nc2n3CCCCC2)CC1,inactive: 83%
12,CCC1(C)CC(=O)c2c(ccc3oc(C(=O)NCc4ccccc4)c(C)c23)O1 (stereo not given),inactive: 36%
13,Cc1ccc2oc3c(c(=O)c2c1)C(c1ccc(O)cc1)N(Cc1ccc2c(c1)OCO2)C3=O (stereo not given),inactive: 89%
14,CCOc1ccc(C(=O)c2cn(CC(=O)Nc3ccc(OC)cc3)c3cc4c(cc3c2=O)OCCO4)cc1,inactive: 88%
15,O=C(NCCC1=CCCCC1)C1CCN(C(=O)Cc2ccccc2)CC1,inactive: 114%
16,COc1ccc2[nH]c(=O)c(CN(C(=O)c3cccc(Cl)c3)c3ccccc3C)cc2c1,inactive: 84%
17,CC1CN(c2ccc(Cl)cc2)c2nc3c(c(=O)n(CC(=O)O)c(=O)n3C)n2C1 (stereo not given),inactive: 73%
18,COc1ccc2occ(CC(=O)Nc3ccc(S(=O)(=O)Nc4nccc(C)n4)cc3)c2c1,inactive: 83%
19,Cc1ccc(CNC(=O)c2sc3nc[nH]c(=O)c3c2C)cc1,inactive: 127%
20,Cc1cc2nnc(SCc3ccc(F)cc3)n2c2ccccc12,active: -2%
21,CC(C)CCn1c(=O)c2cccnc2n(CC(=O)Nc2ccc(F)cc2)c1=O,inactive: 73%
